# ± gives the standard deviation of the averaged measurements. Restriction of a single-cycle SIVsab GFP reporter by TRIM5α v1-loop variants in CRFK cells. Human variants: read share among cells still uninfected after two challenges over input, higher = gained restriction. Rhesus variants: share among infected cells over input, higher = lost restriction. Reporter dose not given per row. No active / inactive call per row; the paper calls a change when both replicates lie above its controls (mean + 2 SD of stop or wild-type variants, or the top frameshift score). Residues outside the varied loop are taken from Swiss-Prot. The paper reads the human single-substitution scores as noise; they and the rhesus combinations repeat poorly (rank correlation 0.3 to 0.4), indel scores repeat only for the top variants, rhesus substitutions well (0.9).
# Tested on: SIVsab (simian immunodeficiency virus of sabaeus monkeys), single-cycle GFP reporter, in CRFK cells
# Assay: enrichment among uninfected cells over input (fold); higher = stronger restriction
# Conditions: library: human / rhesus combinations
# Method: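 Pools of CRFK cells expressing variants of the TRIM5α v1 loop were challenged with the single-cycle reporter, sorted by GFP and sequenced; mean of two replicates.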
row,Sequence,enrichment
1,"MASGILVNVKEEVTCPICLELLTQPLSLDCGHSFCQACLTANHKKSMLDKGESSCPVCRISYQPENIRPNRHVANIVEKLREVKLSPEGQKVDHCARHGEKLLLFCQEDGKVICWLCERSQEHRGHHTFLTEEVAREYQVKLQAALEMLRQKQQEAEELEADIREEKASWKTQIQYDKTNVLADFEQLRDILDWEESNELQNLEKEEEDILKSLTNSETEMVQQTQSLRELISDLEHRLQGSVMELLQGVDGVIKRTENVTLKKPETFPKNQRRVFRAPDLKGMLEVFRELTDVRRYWVDVTVAPNNISCAVISEDKRQVSSPKPQIIYGARGTRFQTLTNFNYCTGILGSQSITSGKHYWEVDVSKKTAWILGVCAGFQPDAMCNIEKNENYQPKYGYWVIGLEEGVKCSAFQDSSFHTPSVPFIVPLSVIICPDRVGVFLDYEACTVSFFNITNHGFLIYKFSHCSFSQPVFPYLNPRKCGVPMTLCSPSS [human TRIM5α, 330-340 = GARGTRFQTLT]",0.00922 ± 0.0089
2,"MASGILVNVKEEVTCPICLELLTQPLSLDCGHSFCQACLTANHKKSMLDKGESSCPVCRISYQPENIRPNRHVANIVEKLREVKLSPEGQKVDHCARHGEKLLLFCQEDGKVICWLCERSQEHRGHHTFLTEEVAREYQVKLQAALEMLRQKQQEAEELEADIREEKASWKTQIQYDKTNVLADFEQLRDILDWEESNELQNLEKEEEDILKSLTNSETEMVQQTQSLRELISDLEHRLQGSVMELLQGVDGVIKRTENVTLKKPETFPKNQRRVFRAPDLKGMLEVFRELTDVRRYWVDVTVAPNNISCAVISEDKRQVSSPKPQIIYQAPGTLFTFPSLTNFNYCTGILGSQSITSGKHYWEVDVSKKTAWILGVCAGFQPDAMCNIEKNENYQPKYGYWVIGLEEGVKCSAFQDSSFHTPSVPFIVPLSVIICPDRVGVFLDYEACTVSFFNITNHGFLIYKFSHCSFSQPVFPYLNPRKCGVPMTLCSPSS [human TRIM5α, 330-340 = QAPGTLFTFPSLT]",39.2 ± 11
3,"MASGILVNVKEEVTCPICLELLTQPLSLDCGHSFCQACLTANHKKSMLDKGESSCPVCRISYQPENIRPNRHVANIVEKLREVKLSPEGQKVDHCARHGEKLLLFCQEDGKVICWLCERSQEHRGHHTFLTEEVAREYQVKLQAALEMLRQKQQEAEELEADIREEKASWKTQIQYDKTNVLADFEQLRDILDWEESNELQNLEKEEEDILKSLTNSETEMVQQTQSLRELISDLEHRLQGSVMELLQGVDGVIKRTENVTLKKPETFPKNQRRVFRAPDLKGMLEVFRELTDVRRYWVDVTVAPNNISCAVISEDKRQVSSPKPQIIYQARGTRFPSLVNFNYCTGILGSQSITSGKHYWEVDVSKKTAWILGVCAGFQPDAMCNIEKNENYQPKYGYWVIGLEEGVKCSAFQDSSFHTPSVPFIVPLSVIICPDRVGVFLDYEACTVSFFNITNHGFLIYKFSHCSFSQPVFPYLNPRKCGVPMTLCSPSS [human TRIM5α, 330-340 = QARGTRFPSLV]",0.207 ± 0.1
4,"MASGILVNVKEEVTCPICLELLTQPLSLDCGHSFCQACLTANHKKSMLDKGESSCPVCRISYQPENIRPNRHVANIVEKLREVKLSPEGQKVDHCARHGEKLLLFCQEDGKVICWLCERSQEHRGHHTFLTEEVAREYQVKLQAALEMLRQKQQEAEELEADIREEKASWKTQIQYDKTNVLADFEQLRDILDWEESNELQNLEKEEEDILKSLTNSETEMVQQTQSLRELISDLEHRLQGSVMELLQGVDGVIKRTENVTLKKPETFPKNQRRVFRAPDLKGMLEVFRELTDVRRYWVDVTVAPNNISCAVISEDKRQVSSPKPQIIYQARGTRFTFQSFVNFNYCTGILGSQSITSGKHYWEVDVSKKTAWILGVCAGFQPDAMCNIEKNENYQPKYGYWVIGLEEGVKCSAFQDSSFHTPSVPFIVPLSVIICPDRVGVFLDYEACTVSFFNITNHGFLIYKFSHCSFSQPVFPYLNPRKCGVPMTLCSPSS [human TRIM5α, 330-340 = QARGTRFTFQSFV]",0.175 ± 0.17
5,"MASGILVNVKEEVTCPICLELLTQPLSLDCGHSFCQACLTANHKKSMLDKGESSCPVCRISYQPENIRPNRHVANIVEKLREVKLSPEGQKVDHCARHGEKLLLFCQEDGKVICWLCERSQEHRGHHTFLTEEVAREYQVKLQAALEMLRQKQQEAEELEADIREEKASWKTQIQYDKTNVLADFEQLRDILDWEESNELQNLEKEEEDILKSLTNSETEMVQQTQSLRELISDLEHRLQGSVMELLQGVDGVIKRTENVTLKKPETFPKNQRRVFRAPDLKGMLEVFRELTDVRRYWVDVTVAPNNISCAVISEDKRQVSSPKPQIIYQAPGTRFTFQTLTNFNYCTGILGSQSITSGKHYWEVDVSKKTAWILGVCAGFQPDAMCNIEKNENYQPKYGYWVIGLEEGVKCSAFQDSSFHTPSVPFIVPLSVIICPDRVGVFLDYEACTVSFFNITNHGFLIYKFSHCSFSQPVFPYLNPRKCGVPMTLCSPSS [human TRIM5α, 330-340 = QAPGTRFTFQTLT]",0.235 ± 0.17
6,"MASGILVNVKEEVTCPICLELLTQPLSLDCGHSFCQACLTANHKKSMLDKGESSCPVCRISYQPENIRPNRHVANIVEKLREVKLSPEGQKVDHCARHGEKLLLFCQEDGKVICWLCERSQEHRGHHTFLTEEVAREYQVKLQAALEMLRQKQQEAEELEADIREEKASWKTQIQYDKTNVLADFEQLRDILDWEESNELQNLEKEEEDILKSLTNSETEMVQQTQSLRELISDLEHRLQGSVMELLQGVDGVIKRTENVTLKKPETFPKNQRRVFRAPDLKGMLEVFRELTDVRRYWVDVTVAPNNISCAVISEDKRQVSSPKPQIIYGAPGTLYTFQTFVNFNYCTGILGSQSITSGKHYWEVDVSKKTAWILGVCAGFQPDAMCNIEKNENYQPKYGYWVIGLEEGVKCSAFQDSSFHTPSVPFIVPLSVIICPDRVGVFLDYEACTVSFFNITNHGFLIYKFSHCSFSQPVFPYLNPRKCGVPMTLCSPSS [human TRIM5α, 330-340 = GAPGTLYTFQTFV]",0.0328 ± 0.045

# Same assay, conditions: library: insertions and deletions
row,Sequence,enrichment
1,"MASGILVNVKEEVTCPICLELLTQPLSLDCGHSFCQACLTANHKKSMLDKGESSCPVCRISYQPENIRPNRHVANIVEKLREVKLSPEGQKVDHCARHGEKLLLFCQEDGKVICWLCERSQEHRGHHTFLTEEVAREYQVKLQAALEMLRQKQQEAEELEADIREEKASWKTQIQYDKTNVLADFEQLRDILDWEESNELQNLEKEEEDILKSLTNSETEMVQQTQSLRELISDLEHRLQGSVMELLQGVDGVIKRTENVTLKKPETFPKNQRRVFRAPDLKGMLEVFRELTDVRRYWVDVTVAPNNISCAVISEDKRQVSSPKPQIIYGATFVNFNYCTGILGSQSITSGKHYWEVDVSKKTAWILGVCAGFQPDAMCNIEKNENYQPKYGYWVIGLEEGVKCSAFQDSSFHTPSVPFIVPLSVIICPDRVGVFLDYEACTVSFFNITNHGFLIYKFSHCSFSQPVFPYLNPRKCGVPMTLCSPSS [human TRIM5α, 6-codon deletion at 332]",0.819 ± 0.055
2,"MASGILVNVKEEVTCPICLELLTQPLSLDCGHSFCQACLTANHKKSMLDKGESSCPVCRISYQPENIRPNRHVANIVEKLREVKLSPEGQKVDHCARHGEKLLLFCQEDGKVICWLCERSQEHRGHHTFLTEEVAREYQVKLQAALEMLRQKQQEAEELEADIREEKASWKTQIQYDKTNVLADFEQLRDILDWEESNELQNLEKEEEDILKSLTNSETEMVQQTQSLRELISDLEHRLQGSVMELLQGVDGVIKRTENVTLKKPETFPKNQRRVFRAPDLKGMLEVFRELTDVRRYWVDVTVAPNNISCAVISEDKRQVSSPKPQIIYGARGTQTFVNFNYCTGILGSQSITSGKHYWEVDVSKKTAWILGVCAGFQPDAMCNIEKNENYQPKYGYWVIGLEEGVKCSAFQDSSFHTPSVPFIVPLSVIICPDRVGVFLDYEACTVSFFNITNHGFLIYKFSHCSFSQPVFPYLNPRKCGVPMTLCSPSS [human TRIM5α, 2-codon deletion at 335]",1.85 ± 2.5
3,"MASGILVNVKEEVTCPICLELLTQPLSLDCGHSFCQACLTANHKKSMLDKGESSCPVCRISYQPENIRPNRHVANIVEKLREVKLSPEGQKVDHCARHGEKLLLFCQEDGKVICWLCERSQEHRGHHTFLTEEVAREYQVKLQAALEMLRQKQQEAEELEADIREEKASWKTQIQYDKTNVLADFEQLRDILDWEESNELQNLEKEEEDILKSLTNSETEMVQQTQSLRELISDLEHRLQGSVMELLQGVDGVIKRTENVTLKKPETFPKNQRRVFRAPDLKGMLEVFRELTDVRRYWVDVTVAPNNISCAVISEDKRQVSSPKPQIIYGARGTRYQTFYCTGILGSQSITSGKHYWEVDVSKKTAWILGVCAGFQPDAMCNIEKNENYQPKYGYWVIGLEEGVKCSAFQDSSFHTPSVPFIVPLSVIICPDRVGVFLDYEACTVSFFNITNHGFLIYKFSHCSFSQPVFPYLNPRKCGVPMTLCSPSS [human TRIM5α, 4-codon deletion at 340]",2.23 ± 1.9
4,"MASGILVNVKEEVTCPICLELLTQPLSLDCGHSFCQACLTANHKKSMLDKGESSCPVCRISYQPENIRPNRHVANIVEKLREVKLSPEGQKVDHCARHGEKLLLFCQEDGKVICWLCERSQEHRGHHTFLTEEVAREYQVKLQAALEMLRQKQQEAEELEADIREEKASWKTQIQYDKTNVLADFEQLRDILDWEESNELQNLEKEEEDILKSLTNSETEMVQQTQSLRELISDLEHRLQGSVMELLQGVDGVIKRTENVTLKKPETFPKNQRRVFRAPDLKGMLEVFRELTDVRRYWVDVTVAPNNISCAVISEDKRQVSSPKPQIIYGARGTRYQTFVNFNYCTGILGSYCTGILGSQSITSGKHYWEVDVSKKTAWILGVCAGFQPDAMCNIEKNENYQPKYGYWVIGLEEGVKCSAFQDSSFHTPSVPFIVPLSVIICPDRVGVFLDYEACTVSFFNITNHGFLIYKFSHCSFSQPVFPYLNPRKCGVPMTLCSPSS [human TRIM5α, 8-codon duplication at 344]",0.345 ± 0.27
5,"MASGILVNVKEEVTCPICLELLTQPLSLDCGHSFCQACLTANHKKSMLDKGESSCPVCRISYQPENIRPNRHVANIVEKLREVKLSPEGQKVDHCARHGEKLLLFCQEDGKVICWLCERSQEHRGHHTFLTEEVAREYQVKLQAALEMLRQKQQEAEELEADIREEKASWKTQIQYDKTNVLADFEQLRDILDWEESNELQNLEKEEEDILKSLTNSETEMVQQTQSLRELISDLEHRLQGSVMELLQGVDGVIKRTENVTLKKPETFPKNQRRVFRAPDLKGMLEVFRELTDVRRYWVDVTVAPNNISCAVISEDKRQVSSPKPQIIYGARGTRYQTFVNFNYFNYCTGILGSQSITSGKHYWEVDVSKKTAWILGVCAGFQPDAMCNIEKNENYQPKYGYWVIGLEEGVKCSAFQDSSFHTPSVPFIVPLSVIICPDRVGVFLDYEACTVSFFNITNHGFLIYKFSHCSFSQPVFPYLNPRKCGVPMTLCSPSS [human TRIM5α, 3-codon duplication at 342]",0.601 ± 0.53
6,"MASGILVNVKEEVTCPICLELLTQPLSLDCGHSFCQACLTANHKKSMLDKGESSCPVCRISYQPENIRPNRHVANIVEKLREVKLSPEGQKVDHCARHGEKLLLFCQEDGKVICWLCERSQEHRGHHTFLTEEVAREYQVKLQAALEMLRQKQQEAEELEADIREEKASWKTQIQYDKTNVLADFEQLRDILDWEESNELQNLEKEEEDILKSLTNSETEMVQQTQSLRELISDLEHRLQGSVMELLQGVDGVIKRTENVTLKKPETFPKNQRRVFRAPDLKGMLEVFRELTDVRRYWVDVTVAPNNISCAVISEDKRQVSSPKPARGTRYQTFVNFNYCTGILGSQSITSGKHYWEVDVSKKTAWILGVCAGFQPDAMCNIEKNENYQPKYGYWVIGLEEGVKCSAFQDSSFHTPSVPFIVPLSVIICPDRVGVFLDYEACTVSFFNITNHGFLIYKFSHCSFSQPVFPYLNPRKCGVPMTLCSPSS [human TRIM5α, 5-codon deletion at 326]",1.07 ± 0.19
